From patent publication US20160237133A1

Molecular target: FGF receptors (FGFR) of HEK293 cells
Test: cell-based or functional assay

## NT1 (FGF1^ΔNT, SEQ ID NO: 15) (a stretch of the chain, no sequence given) (ligand)
  FGFR signaling (phosphorylation of downstream ERK and AKT pathways, Western blot, HEK293 cells), relative to FGF1 (fold reduction): 100
